The test deals with GTPase KRas (Homo sapiens) (UniProt P01116). The test is described as follows: Covalent labelling of cysteine mutants by fragments, read by mass spectrometry (AID 2202238). The note with it: KRAS G12D cysteine mutants, disulfide tethering, MALDI-TOF labeling, stronger effect = higher value, fragment at 500 µM. Also on record: protein at 5 µM with 500 µM competing thiol for 1.5 h.
[1] abbreviates: measured here: G75C mutant labeling.
Setting [2] is: measured here: H94C mutant labeling.
Where [3] appears, read: measured here: I36C mutant labeling.
Where [4] appears, read: measured here: L120C mutant labeling.
Where [5] appears, read: measured here: M67C mutant labeling.
Where [6] appears, read: measured here: M72C mutant labeling.
[7] abbreviates: measured here: N86C mutant labeling.
The mark [8] stands for this setting: measured here: P121C mutant labeling.
The mark [9] stands for this setting: measured here: S122C mutant labeling.
Setting [10] is: measured here: S136C mutant labeling.
Where [11] appears, read: measured here: G60C mutant labeling.
Setting [12] is: measured here: N26C mutant labeling.

We go through 15 compounds from PubChem BioAssay AID2202238 (Ras Initiative Chemistry Research Team, Frederick National …, 2025).

The structures appear in SMILES notation. This is one part of the list. The main result of the screen is listed elsewhere. These columns were measured beside it and carry no call.

Chain of UniProt P01116 (P01116 whole entry, looked up, the tested form may be a part): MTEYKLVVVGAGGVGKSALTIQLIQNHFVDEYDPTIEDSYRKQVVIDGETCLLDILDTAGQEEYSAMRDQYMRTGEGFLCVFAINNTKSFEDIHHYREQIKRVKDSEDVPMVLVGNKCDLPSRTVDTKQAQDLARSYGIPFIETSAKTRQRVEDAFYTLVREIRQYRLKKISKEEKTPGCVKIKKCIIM

On to `O=C(CCS)Nc1ccn(CCN2CCNC2=O)n1`, for which the percent labeling is, setting by setting: under setting [1], 8.9%; under setting [2], 31%; under setting [3], 34%; under setting [4], 34%; under setting [5], 31.6%; under setting [6], 20.7%. Moreover, the percent labeling turned out to be 20.1% under setting [7], 29.7% under setting [8], 32.7% under setting [9] and 45.2% under setting [10].

Turning to `Cc1ccc(-c2cc(C(=O)NCCS)c3cnn(C(C)C)c3n2)s1`, the percent labeling reads like this: under setting [11], 17.7%; under setting [1], 6.8%; under setting [2], 9.4%; under setting [3], 8.3%; under setting [4], 5.7%; under setting [5], 3.7%. The percent labeling by setting is: under setting [6], 45.7%; under setting [12], 27.3%; under setting [7], 2.7%; under setting [8], 6.3%; under setting [9], 0%; under setting [10], 15%.

On to `Nc1ncnc2c1ncn2C[C@H]1CC[C@@H](C(=O)NCCS)O1`, for which the percent labeling stood at 21% under setting [11]; 12.4% under setting [1]; 29.4% under setting [2]; 25.1% under setting [3]; 25.6% under setting [4]; 35.3% under setting [5]. Besides, the percent labeling turned out to be 12.7% under setting [6]; 39.1% under setting [12]; 19.5% under setting [7]; 21.9% under setting [8]; 26.8% under setting [9]; 44.7% under setting [10].

`O=C(NCCS)c1ccc(Oc2ccc(Cl)cc2)c(F)c1`: the percent labeling is, setting by setting: under setting [11], 21.5%; under setting [1], 7.5%; under setting [2], 11.3%; under setting [3], 10.1%; under setting [4], 7.7%; under setting [5], 15.6%. Besides, the percent labeling was 25.4% under setting [6]; 20.8% under setting [12]; 11.6% under setting [7]; 14.5% under setting [8]; 4.5% under setting [9]; 7.4% under setting [10].

On to `Cc1nc(C2CCCC2)sc1C(=O)NCCS`, for which the percent labeling under setting [11] was 19.7%; the percent labeling under setting [1] was found to be 15.1%; the percent labeling under setting [2] amounted to 18.9%; the percent labeling under setting [3] came to 12.2%; the percent labeling under setting [4] was found to be 22.2%; the percent labeling under setting [5] is 16.3%. Besides, the percent labeling is, setting by setting: under setting [6], 49.8%; under setting [12], 30.6%; under setting [7], 11.5%; under setting [8], 16.9%; under setting [9], 15.5%; under setting [10], 35.4%.

With `Cc1sc(C2(NC(=O)CCS)CCC2)nc1-c1ccccc1F`, the percent labeling was 9.8% under setting [1]; 19.2% under setting [2]; 15.6% under setting [3]; 23.7% under setting [4]; 17.2% under setting [5]; 27.9% under setting [6]. The same compound showed a percent labeling under setting [7] of 11.9%, a percent labeling under setting [8] of 13.4%, a percent labeling under setting [9] of 12.2% and a percent labeling under setting [10] of 40.4%.

On to `Cn1cc(CCC(=O)NCCS)cn1`, for which the percent labeling runs as follows: under setting [11], 29.3%; under setting [1], 19.6%; under setting [2], 31%; under setting [3], 28.8%; under setting [4], 32.6%; under setting [5], 32.6%. Moreover, the percent labeling runs as follows: under setting [6], 16.9%; under setting [12], 33.7%; under setting [7], 25.5%; under setting [8], 32.5%; under setting [9], 30.6%; under setting [10], 37.2%.

Turning to `O=C(CCS)NCCc1nc2ncccn2n1`, the percent labeling is 5.8% under setting [1]; 22.5% under setting [2]; 41.4% under setting [3]; 31.5% under setting [4]; 32.9% under setting [5]; 11.8% under setting [6]. This compound also yielded a percent labeling under setting [7] of 21.6%, a percent labeling under setting [8] of 39.4%, a percent labeling under setting [9] of 33% and a percent labeling under setting [10] of 48%.

In the case of `NC(=O)c1cn(C2CCN(C(=O)CCS)CC2)nn1`, the percent labeling is, setting by setting: under setting [1], 12.1%; under setting [2], 34.4%; under setting [3], 45.8%; under setting [4], 47.5%; under setting [5], 48.1%; under setting [6], 26.6%. The compound further registered a percent labeling under setting [7] of 33.7%, a percent labeling under setting [8] of 40.7%, a percent labeling under setting [9] of 39.6% and a percent labeling under setting [10] of 65.1%.

In the case of `O=C(CCS)NCc1ccnc(-n2cncn2)c1`, the percent labeling was found to be 13.3% under setting [1]; 24.5% under setting [2]; 36.7% under setting [3]; 29.9% under setting [4]; 35.6% under setting [5]; 25.5% under setting [6]. Moreover, the percent labeling reads like this: under setting [7], 19.6%; under setting [8], 31.2%; under setting [9], 31.8%; under setting [10], 46.3%.

For the compound `O=C(CCS)N1CCN(C(=O)c2n[nH]c3ccccc23)CC1`, the percent labeling runs as follows: under setting [1], 14.7%; under setting [2], 35.4%; under setting [3], 50.8%; under setting [4], 33.4%; under setting [5], 79.8%; under setting [6], 34.4%. Besides, the percent labeling reads like this: under setting [7], 26.4%; under setting [8], 40.9%; under setting [9], 33.4%; under setting [10], 57%.

Take `O=C(NCCS)c1ccc(-n2ccnc2)cn1`: the percent labeling is, setting by setting: under setting [11], 36.8%; under setting [1], 31%; under setting [2], 35.1%; under setting [3], 26.8%; under setting [4], 29.9%; under setting [5], 35.7%. Moreover, the percent labeling was 53.6% under setting [6]; 45.4% under setting [12]; 27.8% under setting [7]; 26% under setting [8]; 24.9% under setting [9]; 47.5% under setting [10].

For the compound `O=C(CCn1c2ccc(Cl)cc2c2cc(Cl)ccc21)NCCS`, the percent labeling worked out at 29.8% under setting [11]; 8.5% under setting [1]; 17.5% under setting [2]; 12.5% under setting [3]; 10% under setting [4]; 6.4% under setting [5]. The percent labeling reads like this: under setting [6], 25.8%; under setting [12], 23.5%; under setting [7], 10.5%; under setting [8], 7.8%; under setting [9], 2.8%; under setting [10], 6.9%.

The compound `NC(=O)NC(CC(=O)NCCS)c1cccs1` (stereo unspecified) displayed a percent labeling under setting [11] of 26.9%; a percent labeling under setting [1] of 8.9%; a percent labeling under setting [2] of 25.4%; a percent labeling under setting [3] of 23.9%; a percent labeling under setting [4] of 31.5%; a percent labeling under setting [5] of 27.3%. This compound also showed a percent labeling under setting [6] of 15%; a percent labeling under setting [12] of 28%; a percent labeling under setting [7] of 23.2%; a percent labeling under setting [8] of 30.8%; a percent labeling under setting [9] of 25.4%; a percent labeling under setting [10] of 33.9%.

As to `O=C(CCS)N1CCN(C(=O)c2cccc(F)c2)CC1`, the percent labeling runs as follows: under setting [1], 13%; under setting [2], 36.2%; under setting [3], 41.6%; under setting [4], 31.7%; under setting [5], 40.4%; under setting [6], 29%. In addition, the percent labeling reads like this: under setting [7], 26%; under setting [8], 42.4%; under setting [9], 37%; under setting [10], 58.6%.
